Source: PubChem BioAssay AID588342 (National Center for Advancing Translational Sciences (NCATS), 2011)
The whole screen tested about 360,000 compounds, of which about 25,000 (6.9%) were called active. The inconclusive results got no clear call from the source; some entries with a clear call stand among them for comparison. Calls come from the whole dose curve; as a rule, active = well fitted inhibition curve with a large enough effect; inconclusive = small, poorly fitted or top-dose-only effect; inactive = flat fitted curve, though single readings scatter. A potency beside an inconclusive call is a rough fit, not a confirmed value.

target: Luciferin 4-monooxygenase (Photinus pyralis) (UniProt P08659); test: qHTS profiling assay for firefly luciferase inhibitor/activator using purifed enzyme and Km concentrations of substrates (counterscreen for miR-21 project); details: purified FLuc, luminescence inhibition; series mostly up to 57.5 µM; note: nearly all actives have a fitted effect of over 55% in size
Method in brief: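 Purified P. pyralis luciferase, 10 nM final, with Km-level 10 uM D-luciferin and 10 uM ATP in 50 mM Tris acetate pH 7.5, 10 mM Mg acetate, 0.01% Tween-20, 0.05% BSA; 6-point qHTS titration about 60 µM downward; luminescence read.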
Potency is the fitted concentration of half-maximal effect; tags give direction and shape of the fitted curve.

Chain of UniProt P08659 (P08659 whole entry, looked up): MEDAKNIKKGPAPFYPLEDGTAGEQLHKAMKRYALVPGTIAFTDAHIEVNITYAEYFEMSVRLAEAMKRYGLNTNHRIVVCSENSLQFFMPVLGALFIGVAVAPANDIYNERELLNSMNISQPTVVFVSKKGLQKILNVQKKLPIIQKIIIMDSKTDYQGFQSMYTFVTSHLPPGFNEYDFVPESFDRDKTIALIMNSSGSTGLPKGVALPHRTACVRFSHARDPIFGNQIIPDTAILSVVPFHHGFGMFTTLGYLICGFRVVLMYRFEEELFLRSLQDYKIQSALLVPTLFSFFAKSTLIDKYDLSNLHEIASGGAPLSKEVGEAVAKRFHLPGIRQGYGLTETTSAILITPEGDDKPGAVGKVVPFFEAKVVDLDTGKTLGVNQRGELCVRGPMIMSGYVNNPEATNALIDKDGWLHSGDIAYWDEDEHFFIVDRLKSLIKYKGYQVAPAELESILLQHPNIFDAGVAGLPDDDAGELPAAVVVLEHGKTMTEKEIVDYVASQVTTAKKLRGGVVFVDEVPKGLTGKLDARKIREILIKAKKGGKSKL

SMILES | Potency
CCC(=O)Nc1c(-c2ccc3ccccc3c2)nc2ccccn12 | active: 3.79 µM
O=[N+]([O-])c1ccccc1/C=N\N1CCN(Cc2ccccc2Cl)CC1 | inconclusive: 26.9 µM [inhibitor, partial curve, poor fit]
Cc1ccc(-c2ccc(C(=O)O)[nH]2)cc1 | active: 19 µM
CCOc1ccc(S(=O)(=O)N2CCOCC2)cc1NC(=O)c1ccc(N2CCCC2=O)cc1 | inactive
O=C(c1ccc(-c2ccccc2Cl)o1)N1CCN(c2ccccc2O)CC1 | inconclusive: 23.9 µM [inhibitor, partial curve, poor fit]
CCc1ccc(NC(=O)Cn2nc3c4ccccc4n(Cc4ccccc4)cc-3c2=O)cc1 | inactive
O=C(CSc1nnc(CCCN2C(=O)c3cccc4cccc(c34)C2=O)n1-c1ccccc1)N1CCCCC1 | inactive
O=C(NCCc1cccs1)c1cccs1 | active: 13.5 µM
Cc1ccc(Nc2nc(C)cs2)cc1 | active: 13.5 µM
O=C(CN1C(=O)NC2(CCCC2)C1=O)Nc1nc2ccc(F)cc2s1 | inconclusive: 30.1 µM [inhibitor, partial curve, poor fit]
Cc1cnc(C(=O)NCCc2ccc(Cl)cc2)cn1 | inconclusive: 23.9 µM [inhibitor, partial curve]
Cc1cc(C(=O)CSc2nnc(-c3ccco3)o2)c(C)n1Cc1ccco1 | inconclusive: 9.53 µM [inhibitor, partial curve, poor fit]
CC(C)(C)C(=O)Nc1ccc2oc(-c3cc(F)c(F)cc3Cl)nc2c1 | active: 2.69 µM
O=c1oc(-c2ccccc2)nc2ccsc12 | inconclusive: 12 µM [inhibitor, partial curve, poor fit]
Clc1cccc(-c2nc(-c3ccc(-c4nn[nH]n4)cc3)no2)c1 | inconclusive: 33.8 µM [inhibitor, single point]
COc1cc(OC)c(C(=O)OCC(=O)NCCc2ccccc2)cc1OC | inactive
CC(C)(C)OC(=O)NCCCCCNC(=O)c1[nH]cnc1C(=O)Nc1ccc(Cl)cc1 | inactive
COc1cccc(/C=N/NC(=O)CNC(=O)c2ccco2)c1O | inconclusive: 30.1 µM [inhibitor, partial curve, poor fit]
Nc1ccc2nc(-c3cccc(-c4nc5ccc(N)cc5[nH]4)n3)[nH]c2c1 | active: 9.53 µM
Cc1[nH]c2ccccc2c1C(=O)COC(=O)C(C)C | inconclusive: 26.9 µM [inhibitor, partial curve, poor fit]
Cc1ccc(C)c2c1cc(C)c1nnc(SCC(=O)c3cccs3)n12 | inconclusive: 33.8 µM [inhibitor, partial curve, poor fit]
Cc1[nH]n(-c2ccc([N+](=O)[O-])cc2)c(=O)c1C=NCC1CCCO1 (stereo not given) | inconclusive: 37.9 µM [inhibitor, partial curve, poor fit]
CCSc1nnc(NC(=O)c2cc(OC)c(OC)c(OC)c2)s1 | inconclusive: 26.9 µM [inhibitor, partial curve, poor fit]
O=C(Nc1c(C(=O)Nc2ccc(F)cc2)oc2ccccc12)c1cc2ccccc2o1 | active: 2.69 µM

SMILES | Potency
CCN(CC)c1ccc(/C=N/NC(=O)CCC(=O)NCc2ccccc2)c(O)c1 | inconclusive: 37.9 µM [inhibitor, single point]
Nc1nnc(CC(=O)N/N=C/c2ccc(-c3ccc(F)cc3)o2)s1 | inconclusive: 26.9 µM [inhibitor, single point]
O=C(NNS(=O)(=O)c1ccc(Br)cc1)c1sccc1-n1cccc1 | inconclusive: 19 µM [inhibitor, single point]
Cc1ccc(-c2cn3nc(-c4ccccc4)c(-c4ccccc4)nc3n2)cc1 | inactive
COc1ccc(CNC(=O)c2ccc(Br)o2)cc1 | inactive
CN(c1ccccc1)c1ccc(/C=N/NC(=O)CC#N)cc1 | inconclusive: 37.9 µM [inhibitor, single point]
COc1cccc(/C=C2\Oc3cc(OCC(=O)N4Cc5ccccc5C[C@H]4C(=O)O)ccc3C2=O)c1 | active: 3.01 µM
CC(=O)c1c(C)[nH]c(C(=O)OCc2cccc(Cl)c2)c1C | inconclusive: 37.9 µM [inhibitor, single point]
Cc1cc(-c2nnc(CCC(=O)NC(c3ccccc3)c3ccccc3)o2)no1 | inconclusive: 26.9 µM [inhibitor, single point]
Cc1ccc2sc3ccc(NC(=O)c4ccccc4Cl)cc3c(=O)c2c1 | inconclusive: 5.36 µM [inhibitor, full curve]
O=C(Nc1cccc(F)c1)N1CCC(c2ccccc2)CC1 | inconclusive: 26.9 µM [inhibitor, partial curve]
COC(=O)[C@@H](NC(=O)O[C@@H]1C(=O)c2cc(Br)ccc2O[C@H]1c1cccc(OC)c1)C(C)C | inconclusive: 19 µM [inhibitor, partial curve, poor fit]
CC(C)NC(=O)/C(C#N)=C\c1ccc(N(C)C)o1 | inconclusive: 37.9 µM [inhibitor, partial curve, poor fit]
COc1cc(NC(=O)c2cc3nc(C)cc(C)n3n2)c(OC)cc1Cl | active: 3.01 µM
CC1(C(=O)NCCN2CCOCC2)C=CC2(CCCCC2)N1C(=O)c1ccccc1 (stereo not given) | inconclusive: 19 µM [inhibitor, partial curve]
Clc1ccc(C2Nc3cccc4cccc(c34)N2)cc1 | active: 19 µM
Cc1ccc(NC(=O)CSCc2ccco2)cc1 | active: 15.1 µM
CC(C)OCCCNC(=O)c1cc(-c2cccs2)nc2ccccc12 | inconclusive: 30.1 µM [inhibitor, partial curve, poor fit]
O=c1oc2cc(O)ccc2cc1-c1nc2c(s1)CCc1ccccc1-2 | inconclusive: 19 µM [inhibitor, partial curve, poor fit]
COc1ccc(C(=O)N2CCCC(CCC(=O)NCc3ccc(F)c(F)c3)C2)o1 (stereo not given) | inconclusive: 19 µM [inhibitor, single point]
O=C(CNCc1ccccc1)Nc1ccc(Cl)cc1 | inconclusive: 21.3 µM [inhibitor, single point]
Cc1ccc2[nH]c3c(c2c1)SC(C)(C)CC3=O | inactive
Cc1cccn2c(=O)c3cc(C(=O)NCCN4CCOCC4)n(C)c3nc12 | inconclusive: 13.5 µM [inhibitor, partial curve]
Cc1cc(NC(=O)C(C)SCC(=O)OC(C)C(=O)Nc2ccccc2C)no1 (stereo not given) | inactive

SMILES | Potency
CCN(CC)C(=O)c1sc2nc(-c3ccc(OC)cc3)cn2c1C | active: 7.57 µM
COc1ccc(NS(=O)(=O)c2ccc3c(c2)CCN3C(=O)CCC(=O)O)cc1Cl | inactive
O=C1c2sc3nc4ccccc4n3c2C(=O)N1c1ccccc1Cl | inconclusive: 19 µM [inhibitor, partial curve]
C=CCN1C(=O)C(O)(CC(=O)c2ccc(Cl)cc2)c2ccccc21 (stereo not given) | inconclusive: 26.9 µM [inhibitor, partial curve, poor fit]
COc1ccc2sc(N(Cc3cccnc3)C(=O)c3ccc4c(c3)OCCO4)nc2c1 | inconclusive: 30.1 µM [inhibitor, single point]
COc1ccc(O)c(/C=c2/sc3nc4cc(C)c(C)cc4n3c2=O)c1 | inconclusive: 26.9 µM [inhibitor, single point]
CCOc1cc(/C=C(\CC(=O)O)c2nc3ccccc3s2)ccc1OC | inconclusive: 26.9 µM [inhibitor, single point]
COc1ccc(NC(=O)CCOc2ccccc2)c(OC)c1 | inconclusive: 26.9 µM [inhibitor, partial curve, poor fit]
COc1cc(C(=O)Nc2ccc3c(c2)ncn3C(C)(C)C)cc(OC)c1OC | inconclusive: 19 µM [inhibitor, partial curve]
c1ccc(C(c2ccccc2)c2nc(-c3cccnc3)no2)cc1 | inactive
CCn1c(C)nc2cc(C(=O)OC)ccc21 | inactive
Cc1ccccc1NC(=O)CNC(=O)c1ccc(C(F)(F)F)cc1 | inconclusive: 37.9 µM [inhibitor, partial curve, poor fit]
COc1ccc(NC(=O)CCCSc2nc(-c3ccco3)cc(C(F)(F)F)n2)cc1OC | inactive
CCOC(=O)c1ccc(NC(=O)CSc2nnc(CNC(=O)c3ccccc3F)o2)cc1 | inconclusive: 26.9 µM [inhibitor, partial curve, poor fit]
COc1cccc(C(=O)Nc2cccc(OCc3cc(=O)n4c5c(sc4n3)CCCC5)c2)c1 | inconclusive: 2.13 µM [inhibitor, full curve]
Cn1nc(C(F)(F)F)c(/C=N/OC(=O)c2ccccc2)c1Cl | inconclusive: 21.3 µM [inhibitor, partial curve, poor fit]
COc1ccccc1/C=C/C=N/NC(=O)c1cccs1 | active: 10.7 µM
CC(=O)c1ccc(NS(=O)(=O)c2cccc(S(=O)(=O)c3ccc(Cl)cc3)c2)cc1 | inconclusive: 12 µM [inhibitor, partial curve]
COc1cc(NC(=O)c2ccc(-c3csc(C)n3)cc2)c(OC)cc1Cl | inconclusive: 1.9 µM [inhibitor, full curve]
CCOc1ccc(S(=O)(=O)N2CCN(C(=O)c3ccccc3Cc3ccccc3)CC2)cc1 | inactive
COc1cccc(NC(=O)C(=O)NCC(c2ccc3c(c2)OCO3)N2CCN(C)CC2)c1 (stereo not given) | inconclusive: 26.9 µM [inhibitor, single point]
Cc1ccc(/C=C/C(=O)OCC(=O)Nc2cccc(S(=O)(=O)N(C)C)c2)o1 | active: 21.3 µM
